For 60 molecules, relative growth results are on record in the supplement of paper PMC9446081.

SMILES strings stand for the structures. In all, about 39,000 compounds went through this assay and about 220 (0.56%) showed activity. Some of the results follow.
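Further: static incubation at 37 °C against the wild-type strain, values averaged over two biological replicates.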

The assay concerns Escherichia coli K-12 BW25113. Nature of the assay: relative growth (OD600 normalised to plate interquartile mean) (fraction); higher = less growth inhibition, active = 0.2 or less. The settings on record: 50 µM; LB; incubation time: overnight (16-24 h).
`CCS(=O)(=O)Nc1ccc2c(c1)C(=O)N(C)[C@@H]1CC[C@@H](CC(=O)NCCOC)O[C@H]1CO2`: the relative growth was inactive: 1.01.

In the case of `C[C@@H]1CCCCO[C@H](CN(C)S(=O)(=O)c2ccccc2)[C@@H](C)CN([C@H](C)CO)C(=O)c2cc(NC(=O)Nc3cccc4ccccc34)ccc2O1`, the relative growth is inactive: 1.01.

`C[C@H]1CN([C@@H](C)CO)C(=O)c2cc(NS(=O)(=O)c3cn(C)cn3)ccc2O[C@H]1CN(C)Cc1ccccc1`: the relative growth is inactive: 0.966.

Consider `C[C@@H]1CN([C@@H](C)CO)C(=O)c2cc(NC(=O)Cn3cnnn3)ccc2O[C@H]1CN(C)Cc1ccc(-c2ccccc2)cc1`, for which the relative growth was inactive: 0.909.

Turning to `COC(=O)[C@H](Cc1ccccc1)N1CC2=CCCC=C[C@H]2[C@@H]1[C@@H](O)CCn1cc(-c2ccc(C(=O)NO)s2)nn1`, the relative growth is inactive: 0.993.

With `CC(C)NC(=O)N(C)C[C@H]1Oc2ccc(NC(=O)NC3CCCCC3)cc2C(=O)N([C@@H](C)CO)C[C@H]1C`, the relative growth is inactive: 0.973.

Consider `Cc1ccc(S(=O)(=O)N(C)C[C@H]2OCCCC[C@@H](C)Oc3ccc(NC(=O)Nc4ccccc4)cc3C(=O)N([C@@H](C)CO)C[C@@H]2C)cc1`, for which the relative growth was inactive: 1.04.

On to `COc1ccc2c3c([nH]c2c1)[C@H](CO)N(Cc1ccc(cc1)Cl)C[C@]13CCN(CC1)Cc1ccccc1`, for which the relative growth is inactive: 0.995.

For `C[C@@H]1CCCCO[C@H](CN(C)Cc2ccc(Cl)c(Cl)c2)[C@H](C)CN([C@@H](C)CO)C(=O)c2cc(NS(C)(=O)=O)ccc2O1`, the relative growth was inactive: 0.979.

On to `O=C1CCCN1C1CCNCC1`, for which the relative growth was inactive: 1.01.

For `C[C@H](CO)N1C[C@H](C)[C@H](CN(C)S(=O)(=O)c2cccs2)OCCCC[C@H](C)Oc2ccc(NC(=O)Nc3cccc4ccccc34)cc2C1=O`, the relative growth was inactive: 1.04.

On to `CC(C)NC(=O)N[C@@H]1C=C[C@H](CC(=O)NCCN2CCCC2)O[C@@H]1CO`, for which the relative growth was inactive: 0.924.

On to `CCCNC(=O)N(C)C[C@@H]1Oc2cc(-c3ccc(C)cc3)ccc2S(=O)(=O)N([C@@H](C)CO)C[C@H]1C`, for which the relative growth is inactive: 1.02.

With `CC(C)=CCOc1cc2oc(=O)ccc2cc1O`, the relative growth is inactive: 1.05.

For `C[C@@H]1CCCCO[C@H](CN(C)Cc2ccccc2)[C@@H](C)CN([C@@H](C)CO)C(=O)c2cc(NS(=O)(=O)c3ccc(Cl)cc3)ccc2O1`, the relative growth is inactive: 0.981.

In the case of `C[C@H](CO)N1C[C@H](C)[C@H](CN(C)Cc2ccc(Cl)c(Cl)c2)Oc2c(NC(=O)Nc3ccccc3)cccc2C1=O`, the relative growth was inactive: 0.99.

With `C[C@@H]1CCCCO[C@@H](CN(C)C(=O)Nc2ccccc2)[C@H](C)CN([C@H](C)CO)C(=O)c2cc(NC(=O)Nc3ccc(F)cc3)ccc2O1`, the relative growth was inactive: 1.03.

As to `O=C(C[C@H]1CC[C@@H]2[C@H](COC[C@H](O)CN2S(=O)(=O)c2cccc(F)c2)O1)NCCCN1CCOCC1`, the relative growth is inactive: 0.992.

For `COc1ccc2c3c([nH]c2c1)[C@@H](CO)N(Cc1ccc(cc1)Cl)C[C@]13CCN(CCc2ccccc2)CC1`, the relative growth is inactive: 0.765.

As to `CC(C)NC(=O)N(C)C[C@H]1OCCCC[C@H](C)Oc2ccc(NS(=O)(=O)c3cn(C)cn3)cc2C(=O)N([C@@H](C)CO)C[C@@H]1C`, the relative growth is inactive: 0.97.

For `COc1ccc(NC(=O)N(C)C[C@H]2Oc3ccc(NC(=O)Cn4cnnn4)cc3CC(=O)N([C@H](C)CO)C[C@@H]2C)cc1`, the relative growth is inactive: 1.

On to `O=C(O)CSCC(=O)NC1CCSC1=O` (stereo not given), for which the relative growth was inactive: 1.13.

Regarding `C[C@@H]1CN([C@H](C)CO)C(=O)Cc2cc(NC(=O)Cc3cn(C)c4ccccc34)ccc2O[C@H]1CN(C)Cc1ccc(Cl)c(Cl)c1`, the relative growth is inactive: 1.05.

Consider `C[C@@H]1CN([C@H](C)CO)C(=O)c2cc(NC(=O)CCN3CCOCC3)ccc2O[C@@H]1CN(C)S(=O)(=O)c1cn(C)cn1`, for which the relative growth was inactive: 1.04.

Turning to `C[C@@H]1CN([C@@H](C)CO)S(=O)(=O)c2ccc(C#Cc3ccncc3)cc2O[C@@H]1CN(C)C(=O)C1CCOCC1`, the relative growth was inactive: 1.02.

`C[C@@H]1CCCCO[C@@H](CN(C)C(=O)NC2CCCCC2)[C@H](C)CN([C@H](C)CO)C(=O)c2cc(NC(=O)Nc3ccc(F)cc3)ccc2O1`: the relative growth was inactive: 1.01.

For the molecule `C[C@@H]1CCCCO[C@@H](CN(C)C(=O)Cc2ccccc2)[C@@H](C)CN([C@@H](C)CO)C(=O)c2cc(NC(=O)C3CCCCC3)ccc2O1`, the relative growth is inactive: 1.

`NC(=O)CN1C(=O)C(=O)c2cc(Cl)ccc21`: the relative growth is inactive: 0.935.

Regarding `CO[C@@H](CN(C)S(=O)(=O)c1ccc(F)cc1)[C@@H](C)CN([C@@H](C)CO)S(=O)(=O)c1cccc(Cl)c1`, the relative growth is inactive: 1.03.

Turning to `O=C(C[C@H]1CC[C@H](NS(=O)(=O)c2ccc(F)cc2)[C@H](CO)O1)NCc1ccc(Cl)c(Cl)c1`, the relative growth is inactive: 1.02.

`CCN([NH2+][O-])c1ccc(O)c(O)c1`: the relative growth is inactive: 1.01.

As for `C[C@H]1CN([C@@H](C)CO)C(=O)Cc2cc(NC(=O)Nc3ccc4c(c3)OCO4)ccc2O[C@H]1CN(C)C(=O)Nc1cccc2ccccc12`, the relative growth was inactive: 1.03.

As for `C[C@@H]1CN([C@H](C)CO)C(=O)c2cccc(NC(=O)Nc3ccccc3)c2O[C@H]1CN(C)Cc1ccc(Oc2ccccc2)cc1`, the relative growth was inactive: 0.923.

As to `C[C@@H]1CCCCO[C@H](CN(C)C(=O)c2ccccc2)[C@@H](C)CN([C@H](C)CO)C(=O)c2cc(NS(=O)(=O)c3ccc(F)cc3)ccc2O1`, the relative growth was inactive: 0.965.

Take `O=C(C[C@H]1CC[C@@H]2[C@H](COC[C@@H](O)CN2C(=O)c2ccncc2)O1)NCc1ccc(-c2ccccc2)cc1`: the relative growth was inactive: 1.01.

For `CC(C)C#Cc1ccc2c(c1)O[C@@H](CN(C)C(=O)Cc1ccccn1)[C@@H](C)CN([C@@H](C)CO)S2(=O)=O`, the relative growth was inactive: 0.966.

Turning to `COC(=O)[C@@H]1[C@@H](CO)[C@@H]2Cn3c(ccc(-c4cncnc4)c3=O)[C@@H]2N1C(=O)C1CCC1`, the relative growth was inactive: 1.

Take `Cc1cc(C(=O)Nc2cccc3c2O[C@H](CN(C)C(=O)Nc2ccc4c(c2)OCO4)[C@@H](C)CN([C@@H](C)CO)C3=O)n(C)n1`: the relative growth is inactive: 1.02.

Take `COc1ccc(NC(=O)N(C)C[C@@H]2OCCCC[C@@H](C)Oc3ccc(NS(=O)(=O)c4c(C)noc4C)cc3C(=O)N([C@H](C)CO)C[C@H]2C)cc1`: the relative growth is inactive: 1.

For `C[C@@H]1CN([C@H](C)CO)C(=O)c2cc(-c3ccncc3)cnc2O[C@H]1CN(C)S(=O)(=O)c1ccc(F)cc1`, the relative growth was inactive: 0.97.

For `COCCNC(=O)C[C@H]1CC[C@H]2[C@H](COc3ccc(NC(=O)Nc4cccc(F)c4)cc3C(=O)N2C)O1`, the relative growth is inactive: 0.858.

Take `C[C@@H]1CN([C@H](C)CO)C(=O)c2cccc(NS(=O)(=O)c3ccc(Cl)cc3)c2O[C@H]1CN(C)Cc1ccc(C(F)(F)F)cc1`: the relative growth is inactive: 1.01.

As for `C[C@@H]1CN([C@H](C)CO)C(=O)Cc2cc(NC(=O)C3CCCCC3)ccc2O[C@@H]1CN(C)C(=O)Nc1cccc2ccccc12`, the relative growth is inactive: 0.998.

With `O=S(=O)(NCC[C@H]1CC[C@H](NS(=O)(=O)c2cccc(Cl)c2)[C@H](CO)O1)c1cccc(F)c1`, the relative growth is inactive: 1.

For `CC(C)NC(=O)Nc1ccc2c(c1)CC(=O)N([C@@H](C)CO)C[C@H](C)[C@@H](CN(C)Cc1ccc(Oc3ccccc3)cc1)O2`, the relative growth is inactive: 1.01.

`CC(C)NCC(O)c1ccc2ccccc2c1.Cl` (stereo not given): the relative growth was inactive: 0.864.

As for `C[C@H]1CN([C@@H](C)CO)C(=O)Cc2cc(NS(=O)(=O)c3ccc(Cl)cc3)ccc2O[C@@H]1CN(C)C(=O)Nc1cccc2ccccc12`, the relative growth is inactive: 1.

As to `O=C(O[C@@H]1O[C@H]2COC(=O)c3cc(O)c(O)c(O)c3-c3c(cc(O)c(O)c3O)C(=O)O[C@@H]([C@H]1O)[C@@H]2O)c1cc(O)c(O)c(O)c1`, the relative growth was inactive: 0.69.

Consider `C[C@@H](O)/C=C\c1cc[n+](C)cc1`, for which the relative growth is inactive: 1.

Regarding `C[C@H](CO)N1C[C@H](C)[C@@H](CN(C)C(=O)NC2CCCCC2)OCCCC[C@H](C)Oc2ccc(NC(=O)NC3CCCCC3)cc2C1=O`, the relative growth is inactive: 1.03.

For `CC(=O)O[C@@H](C)C[N+](C)(C)C`, the relative growth was inactive: 1.02.

`Cc1ccc(S(=O)(=O)Nc2ccc3c(c2)C(=O)N([C@@H](C)CO)C[C@@H](C)[C@H](CN(C)Cc2ccncc2)OCCCC[C@H](C)O3)cc1`: the relative growth was inactive: 1.01.

With `C[C@H]1CCCCO[C@H](CN(C)C(=O)Nc2ccc(C(F)(F)F)cc2)[C@@H](C)CN([C@@H](C)CO)C(=O)c2cc(NC(=O)Nc3cccc4ccccc34)ccc2O1`, the relative growth was inactive: 1.02.

Regarding `C[C@H](CO)N1C[C@H](C)[C@H](CN(C)S(C)(=O)=O)Oc2ccc(NS(=O)(=O)c3ccc(Cl)cc3)cc2C1=O`, the relative growth was inactive: 1.03.

In the case of `C[C@H](CO)N1C[C@H](C)[C@H](CN(C)S(=O)(=O)c2cccs2)OCCCC[C@H](C)Oc2ccc(NC(=O)Nc3ccc(C(F)(F)F)cc3)cc2C1=O`, the relative growth is inactive: 1.02.

As for `C[C@H](CO)N1C[C@H](C)[C@@H](CN(C)C(=O)Nc2ccc(C(F)(F)F)cc2)Oc2c(NC(=O)NC3CCCCC3)cccc2C1=O`, the relative growth was inactive: 0.852.

`OC[C@H]1O[C@@H](n2cnc3c(N[C@H]4CCC[C@@H]4O)ncnc32)[C@H](O)[C@@H]1O`: the relative growth is inactive: 1.03.

`CC(C)CC#Cc1cnc2c(c1)C(=O)N([C@@H](C)CO)C[C@@H](C)[C@@H](CN(C)S(=O)(=O)c1cccs1)O2`: the relative growth is inactive: 0.986.

As for `C[C@H]1CN([C@@H](C)CO)C(=O)c2cc(NC(=O)Nc3ccc4c(c3)OCO4)ccc2O[C@H]1CN(C)Cc1ccc(Cl)c(Cl)c1`, the relative growth is inactive: 1.01.

With `C[C@@H]1CCCCO[C@H](CN(C)S(=O)(=O)c2ccc(F)cc2)[C@@H](C)CN([C@H](C)CO)C(=O)c2cc(NC(=O)C3CCCCC3)ccc2O1`, the relative growth was inactive: 1.02.
